{"source": "PubChem BioAssay AID1347417", "about": "(National Center for Advancing Translational Sciences (NCATS), 2020)", "note": "Out of some 120,000 compounds screened, about 5,300 (4.4%) were called active. This list was built around the results that the source calls inconclusive (neither active nor inactive); the mix of calls is not that of the screen. The call rests on the fitted dose curve; in most records, active means well fitted inhibition curve with a large enough effect; inconclusive means small, poorly fitted or top-dose-only effect; inactive means no such curve, though single readings can be large or run the other way. Where the call is inconclusive, the potency comes from a doubtful curve fit. Potency means the concentration at half of the fitted maximal effect; tags describe the fitted curve by direction and shape."}
{"test": "qHTS Primary assay for Inhibitors of Plasmodium falciparum Dd2 growth in vitro; further: nearly all actives have a fitted effect of over 65% in size;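 on activity, negative = inhibition: plate controls were DMSO vehicle for no effect and reference drug for full effect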", "settings": "P. falciparum Dd2 growth, SYBR Green, 72 h; activity, negative = inhibition: at 28.9 µM (top of the series) unless noted; series mostly up to 28.9 µM", "outline": "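Readout: SYBR Green fluorescence, 485 nm excitation, 535 nm emission, after ~16 h lysis at 37C. Before that, Dd2-infected red cells (2.5% hematocrit) grew 72 h with compound, 29 uM top final concentration.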"}
{"smiles": "COC(=O)N1CCc2nc(C(C)C)nc(-c3ccc(OC)cc3)c2CC1", "Potency": "inconclusive: 7.08 µM [inhibitor, partial curve]"}
{"smiles": "CCOC(=O)C1CCCN(C(=O)Cc2ccc(N(Cc3cccc(C)c3)C(=O)c3ccco3)cc2)C1", "note": "(configuration not stated)", "Potency": "inconclusive: 1.41 µM [inhibitor, partial curve]"}
{"smiles": "COc1ccc(OC)c(NC(=O)c2c(NCc3ccc(N(C)C)cc3)sc3c2CCCC3)c1", "Potency": "inconclusive: 12.6 µM [inhibitor, partial curve, poor fit]"}
{"smiles": "Cc1ccc(-n2c(C3CCN(C(=O)c4ccccc4OC(F)(F)F)CC3)n[nH]c2=O)cc1", "Potency": "inconclusive: 10 µM [inhibitor, single point]"}
{"smiles": "CC(C)c1noc(-c2cccn3c(CNC(=O)c4cc5ccccc5[nH]4)nnc23)n1", "Potency": "inconclusive: 1.26 µM [inhibitor, full curve, poor fit]"}
{"smiles": "Cc1ccccc1NC(=O)Cn1cc(S(=O)(=O)N2CCCC2)c(S(=O)(=O)N2CCCC2)c1", "Potency": "inconclusive: 7.94 µM [inhibitor, partial curve, poor fit]"}
{"smiles": "COc1ccc(OC)c(CN2CCC3(CC2)COCCN3C(=O)OCc2ccccc2)c1", "Potency": "inconclusive: 1.12 µM [inhibitor, partial curve, poor fit]"}
{"smiles": "CNCc1ccccc1-c1ccccc1", "Potency": "active: 11.2 µM"}
{"smiles": "CCC(=O)Nc1cccc(OCc2cc(=O)n3cc(C)ccc3n2)c1", "Potency": "inconclusive: 12.6 µM [inhibitor, single point]"}
{"smiles": "COc1ccc(OC)c(CN2CC[C@@H]3OCC(=O)N(c4ccccc4)[C@H]3CC2)c1", "outcome": "inactive [at 44.1 µM]"}
{"smiles": "Cc1cc(NCc2ccc(Cl)cc2)n2cnnc2n1", "Potency": "inconclusive: 20 µM [inhibitor, single point]"}
{"smiles": "COc1ccccc1N(CC(=O)Nc1cc(C)cc(C)c1)S(C)(=O)=O", "Potency": "inconclusive: 0.0794 µM [inhibitor, full curve, poor fit]"}
{"smiles": "COc1cc(NC(=O)O[C@@H]2CO[C@H]3[C@@H]2OC[C@@H]3NC(=O)c2cccs2)cc(OC)c1", "outcome": "inactive [at 44.1 µM]"}
{"smiles": "Cc1ccc(S(=O)(=O)n2nc(-c3ccco3)nc2NCc2ccc(N(C)C)cc2)cc1", "Potency": "inconclusive: 10 µM [inhibitor, partial curve]"}
{"smiles": "CCOC(=O)c1ccc(NC(=O)CCC(=O)N2CCSc3ccccc32)cc1", "outcome": "inactive"}
{"smiles": "Cc1noc(-c2ccn3c(CNC(=O)c4cccc5[nH]ccc45)nnc3c2)n1", "outcome": "inactive"}
{"smiles": "Cn1ncc2c(C(=O)NCc3ccc(F)cc3)cc(-c3ccc(Cl)nc3)nc21", "Potency": "inconclusive: 8.91 µM [inhibitor, single point]"}
{"smiles": "O=C(NC1CC1)c1nc2sccn2c1Br", "Potency": "inconclusive: 3.16 µM [inhibitor, partial curve, poor fit]"}
{"smiles": "CCn1cc2nc(SCc3cccc(C)c3)n(CCc3ccccc3)c(=O)c2n1", "outcome": "inactive"}
{"smiles": "O=C1CNc2ccc(C(=O)NCc3cc4n(n3)CCCNC4)cc2N1", "activity, negative = inhibition": "inactive: 5.48%"}
{"smiles": "Cc1noc(-c2ccc(-c3noc(-c4cccc(Cl)c4)n3)cc2)n1", "Potency": "inconclusive: 2.82 µM [inhibitor, full curve, poor fit]"}
{"smiles": "CCc1ccccc1NC(=O)Cn1c(-c2ccc(F)cc2)nc(C)c(CCO)c1=O", "activity, negative = inhibition": "inactive: -10.8%"}
{"smiles": "C=CCOC(=O)C1=C(C)N=C2SC=C(CC(=O)NC3CC3)N2C1c1cccc(C)c1", "note": "(configuration not stated)", "outcome": "inactive"}
{"smiles": "CCC1(O)CCCN(C(=O)c2coc(COc3ccc4ccc(OC)cc4c3)n2)C1", "note": "(configuration not stated)", "Potency": "inconclusive: 11.2 µM [inhibitor, single point]"}
{"smiles": "COC(=O)[C@H](Cc1ccc(OC)cc1)NC(=O)[C@H]1CN(C(=O)Nc2ccccc2)CCN1S(C)(=O)=O", "Potency": "inconclusive: 2.82 µM [inhibitor, full curve]"}
{"smiles": "COC(=O)c1ccc2nc(C[C@@H]3C[C@@H](C(C)C)[C@H](CNC(=O)c4cccnc4)C=C3C)[nH]c2c1", "Potency": "active: 7.94 µM"}
{"smiles": "CN(Cc1cccn1C)C(=O)c1ccccc1Cl", "activity, negative = inhibition": "inactive: 8.54% [at 44.1 µM]"}
{"smiles": "Cc1ccccc1Cn1c(=O)n(CCCCCC(=O)NCc2ccc3c(c2)OCO3)c(=O)c2sccc21", "Potency": "inconclusive: 17.8 µM [inhibitor, single point]"}
{"smiles": "CN(Cc1ccccc1)Cc1nc2c(n1Cc1ccccc1)C(=O)N(Cc1cccc(Cl)c1)CCN2", "Potency": "inconclusive: 2.24 µM [inhibitor, single point]"}
{"smiles": "O=[S+]([O-])(c1cccs1)N1CCc2nc(C3CC3)nc(-c3ccc(Cl)cc3)c2CC1", "Potency": "active: 3.98 µM"}
{"smiles": "CCOc1cc(C)c(CN2CCC3(C2)CN(C)C(=O)O3)cc1C(C)C", "note": "(configuration not stated)", "Potency": "inconclusive: 10 µM [inhibitor, single point]"}
{"smiles": "COC(=O)N(C)Cc1ccccc1C(F)(F)F", "activity, negative = inhibition": "inactive: 13.6% [at 44.1 µM]"}
{"smiles": "O=C(c1ccc(Cl)cc1)N1CCC(n2cc(-c3cccc(F)c3)[nH]c2=O)CC1", "activity, negative = inhibition": "inconclusive: -118% [inhibitor]"}
{"smiles": "CCOc1ccc(C(=O)NCCc2sc(-c3ccc(F)cc3)nc2C)cc1", "outcome": "inactive"}
{"smiles": "COc1ccc(CNC(=O)CC[C@H]2CNC(=O)[C@@H]3[C@@H](CCN3Cc3ccc(OC)cc3)N2C)cc1", "Potency": "inconclusive: 17.8 µM [inhibitor, single point]"}
{"smiles": "CN(CCN1CCCCCC1)C(=O)c1cc(COc2ccccc2)[nH]n1", "Potency": "active: 7.94 µM"}
{"smiles": "COCCN1CC(C(=O)N(C)Cc2sccc2C)CCC1=O", "note": "(configuration not stated)", "activity, negative = inhibition": "inactive: -0.815%"}
{"smiles": "O=C(Cn1cccc1-c1nc(-c2ccc3c(c2)OCO3)no1)Nc1cccc(Cl)c1", "Potency": "inconclusive: 10 µM [inhibitor, single point]"}
{"smiles": "Cc1cn2nnc(C(=O)Nc3ccc(C)c(C)c3)c2c(=O)[nH]1", "Potency": "inconclusive: 2.24 µM [inhibitor, partial curve, poor fit]"}
{"smiles": "CCOc1ccccc1NC(=O)N1CCC(N2CC(OCCOC)C23CCCCC3)CC1", "note": "(configuration not stated)", "outcome": "inactive"}
{"smiles": "CC(C)c1noc(Cn2nc(-c3ccccc3)c3ccccc3c2=O)n1", "Potency": "inconclusive: 11.2 µM [inhibitor, partial curve, poor fit]"}
{"smiles": "Cc1ccc(N2CC(NC(=O)c3ccccc3Br)CC2=O)cc1", "note": "(configuration not stated)", "activity, negative = inhibition": "inactive: 16.5%"}
{"smiles": "COc1ccc(CNC(=O)[C@@H]2CCC[C@@H](NCc3cccnc3)CN(C)C(=O)C2)cc1", "Potency": "inconclusive: 17.8 µM [inhibitor, single point]"}
{"smiles": "CCOC(=O)c1ccccc1NC(=O)Cn1c(=O)n(-c2ccc(CC)cc2)c(=O)c2c(C)c(C(=O)N(C)C)sc21", "activity, negative = inhibition": "inactive: -21.4%"}
{"smiles": "COc1ccc(CCNC(=O)C(C)n2c(=O)cc(C(F)(F)F)c3c(C)nn(C)c32)cc1OC", "note": "(configuration not stated)", "activity, negative = inhibition": "inactive: 12.2%"}
{"smiles": "Cc1cc(C)cc(Oc2nc3c(C)cccn3c(=O)c2/C=C(\\C#N)c2nc3ccccc3s2)c1", "Potency": "active: 0.891 µM"}
{"smiles": "CCc1ccc(C(=O)c2cn(Cc3ccc(F)cc3)c3cc(OC)c(OC)cc3c2=O)cc1", "Potency": "active: 11.2 µM"}
{"smiles": "COc1ccc2cc1Nc1ccc(cc1)C[C@H](NCc1cccc(O)c1)C(=O)N(C)[C@@H](C(=O)Nc1ccccc1)C2", "Potency": "active: 4.47 µM"}
{"smiles": "CCS(=O)(=O)N1CC(=O)N(c2ccc(Cl)cc2)C(C)(C(=O)NC2CCCCCC2)C1", "note": "(configuration not stated)", "Potency": "inconclusive: 0.282 µM [inhibitor, partial curve, poor fit]"}
{"smiles": "O=C1COc2ccc(-c3cccc(O)c3)nc2CN1Cc1ccc(C(F)(F)F)cc1", "Potency": "inconclusive: 11.2 µM [inhibitor, partial curve, poor fit]"}
{"smiles": "COc1cccc(-c2ccc(CN3CCN(c4ccc(Cl)nn4)C(=O)C3)cc2)c1", "activity, negative = inhibition": "inconclusive: -58.3% [inhibitor]"}
{"smiles": "COCCCNC(=O)C(C)(C)Oc1nn(Cc2cccc(Cl)c2)c2ccccc12", "Potency": "inconclusive: 10 µM [inhibitor, partial curve, poor fit]"}
{"smiles": "CC(=O)Nc1ccc(NC(=O)CN2C(=O)NC(c3ccccc3Cl)C3=C2COC3=O)cc1", "note": "(configuration not stated)", "activity, negative = inhibition": "inactive: -20.3%"}
{"smiles": "O=C(COc1ccc(F)cc1)N1CCCN(c2cc(-c3ccc(Br)cc3)[nH]n2)CC1", "Potency": "inconclusive: 1.78 µM [inhibitor, partial curve, poor fit]"}
{"smiles": "O=C(Cc1ccc(O)cc1)N1Cc2ccccc2CC2(CCN(Cc3ccncc3)C2)C1", "note": "(configuration not stated)", "Potency": "active: 7.94 µM"}
{"smiles": "Cc1ccc(CN2CCC3(CC2)CCN(Cc2ccco2)CC3CO)s1", "note": "(configuration not stated)", "Potency": "inconclusive: 7.94 µM [inhibitor, partial curve]"}
{"smiles": "CN(C)CCNc1oc(-c2ccc(COc3ccc(Cl)cc3)o2)nc1C#N", "Potency": "inconclusive: 12.6 µM [inhibitor, partial curve, poor fit]"}
{"smiles": "COc1cc(NC(=O)Cn2c(-c3cnccn3)nc(C)c(CCO)c2=O)cc(OC)c1", "outcome": "inactive"}
{"smiles": "COCCN1C(=O)c2cccn2CC1CNC(=O)CC(C)C", "note": "(configuration not stated)", "activity, negative = inhibition": "inactive: 1.08%"}
{"smiles": "CCC(=O)N1CCN(c2nc3c(s2)CC(C(=O)Nc2ccc(CC)cc2)CC3)CC1", "note": "(configuration not stated)", "Potency": "inconclusive: 20 µM [inhibitor, single point]"}
{"smiles": "N#Cc1cccc(-c2n[nH]c3c2CC(=O)N(Cc2ccccc2)C3)c1", "Potency": "inconclusive: 0.631 µM [inhibitor, full curve, poor fit]"}
{"smiles": "CCN1CCC(N2CCCC(C(=O)NCc3ccccc3)CCNC(=O)CC2)CC1", "note": "(configuration not stated)", "activity, negative = inhibition": "inactive: 9.46%"}
{"smiles": "COc1cccc(NC(=O)/C(C#N)=C/c2c(C)n(Cc3ccc(Cl)cc3)c3ccccc23)c1", "Potency": "inconclusive: 17.8 µM [inhibitor, single point]"}
{"smiles": "CC(C)Cn1c(-c2ccc(S(=O)(=O)N3CCOCC3)cc2)csc1=Nc1cc(Cl)ccc1Cl", "Potency": "active: 10 µM"}
{"smiles": "Cc1ccc(C(C)C)c(OCCSc2nc3ccccc3n2CC(O)CO)c1", "note": "(configuration not stated)", "Potency": "inconclusive: 11.2 µM [inhibitor, single point]"}
{"smiles": "Cc1cc(C)cc(N2C(=O)N(Cc3cccc(F)c3)c3ccccc3S2(=O)=O)c1", "Potency": "inconclusive: 17.8 µM [inhibitor, single point]"}
{"smiles": "Cc1ccc(C(=O)c2cn(Cc3ccc(Cl)cc3)c3nc(C)ccc3c2=O)cc1", "Potency": "inconclusive: 10 µM [inhibitor, single point]"}
